# In all, about 33,000 sequences were measured (“E-score (-0.5 to 0.5)”: median about -0.017, highest 2% from about 0.3 on). Some of the results follow.
# Target: T1, Sut1 (UniProt P53032)
# T1 sequence: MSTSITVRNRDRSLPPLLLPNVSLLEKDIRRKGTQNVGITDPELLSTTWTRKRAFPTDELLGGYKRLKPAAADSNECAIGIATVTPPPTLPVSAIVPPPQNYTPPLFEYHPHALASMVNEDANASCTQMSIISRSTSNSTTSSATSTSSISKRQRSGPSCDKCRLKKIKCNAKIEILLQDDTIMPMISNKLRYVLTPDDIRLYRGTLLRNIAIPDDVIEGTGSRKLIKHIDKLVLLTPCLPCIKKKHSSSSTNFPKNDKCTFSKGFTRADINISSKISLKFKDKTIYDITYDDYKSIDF
# Assay: PBM E-score (8-mer binding enrichment) (E-score (-0.5 to 0.5)); higher = stronger / more preferred TF binding; most listed sequences are background and not binding sites
# Details: protein concentration: 200 nM; construct: GST-full length
# In short: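 Universal all-10-mer Agilent arrays, double-stranded by primer extension on fresh or once-stripped slides, were probed with about 100-200 nM GST-tagged yeast transcription factors made by PURExpress. Fluorescent anti-GST detected bound protein, and masliner normalised the scans. E-scores from the Universal PBM Analysis Suite were given to each ungapped eight-base word pooled with its reverse complement.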
row,Sequence,PBM E-score
1,CGTCCCCC,-0.176
2,ACGGTGTA,-0.0736
3,GCGCACAA,-0.096
4,AAGAATAT,0.109
5,CTAGTTGC,-0.0129
6,ACTCCTCG,0.0113
7,GAGCGATA,-0.0121
8,ACAGTGCG,-0.119
9,CTGATGTA,-0.0294
10,TCAATGCA,-0.13
11,AGCGAATA,-0.0219
12,AGACGTCT,-0.0546
13,AAATGTGT,0.17
14,AACTGTAC,0.00912
15,GTGAATCA,0.00852
16,GTTATACA,0.22
17,CCGGCCCC,-0.115
18,ACCTTGAG,-0.0614
19,CAGAATGG,0.0413
20,ACCAGGGT,-0.26
21,GAACAGTA,0.0572
22,GGGTAAAC,-0.0044

row,Sequence,PBM E-score
1,GGCACTTA,-0.225
2,AAATAGGG,0.0139
3,AGTCTTAG,-0.23
4,CAGTTAGG,0.0319
5,GGTACCGA,-0.141
6,ATTGTACC,-0.029
7,CTCACGGC,-0.172
8,CACAGCTG,-0.387
9,TACGCCGA,-0.0278
10,CGTTTAAG,0.0533
11,AAGCGGGG,-0.152
12,ACGCAGGG,-0.115
13,AACCATCG,0.128
14,AGCTCAGC,-0.176
15,CTCGGTGC,-0.02
16,GAAAAACC,0.194
17,AAATTTAC,0.204
18,CGCACTGC,-0.205
19,GCGTCGCC,-0.0115
20,CAATTGCC,-0.0683
21,CACCGCCA,-0.0127
22,CTCCAACC,0.0704

row,Sequence,PBM E-score
1,ATGCCCAC,-0.103
2,CGGTTCTA,0.0118
3,GTGATAAC,0.13
4,ACAAATCA,0.171
5,AGAGATGG,-0.153
6,CCCCAGGG,-0.407
7,TAGAGAGA,-0.0117
8,GGATCACA,-0.0846
9,GAACGATA,0.0437
10,ACATGAGC,-0.11
11,AAGCCCGG,0.269
12,AGATACCC,0.0169
13,CGCTCATA,-0.104
14,GACGAATC,-0.0153
15,AGTAACAG,0.113
16,AAACCCTA,-0.07
17,CAGACCCC,-0.348
18,ACCTCTGG,-0.261
19,CTCGAAAA,0.0312
20,CAAAAACG,0.0494
21,CAACCAAG,-0.0636
22,CGGGGGCA,-0.399

row,Sequence,PBM E-score
1,CCTTAGTA,-0.129
2,CAACGACA,0.0513
3,CAGACCTA,-0.132
4,AACTCCGC,0.492
5,ATCATGCG,-0.0362
6,CGGAGCAC,0.175
7,CGCAAGGC,-0.0552
8,ATCCTACA,-0.0809
9,CGCGGGTC,-0.0488
10,ATTCAAAG,0.0234
11,ACGGGGAG,-0.117
12,CGTAACAG,0.0835
13,CACCGAAG,0.157
14,ATGATCCC,-0.096
15,TGGTTGAA,0.0452
16,GGCTAAAC,-0.0069
17,GATAAATA,0.325
18,GGATTATA,0.0232
19,GGGCGCAA,-0.0836
20,AACGTCAC,-0.0497
21,AAATTCAC,0.161
22,AGTTCGAG,-0.0528

row,Sequence,PBM E-score
1,AGGCCCCC,-0.315
2,AATCCCCG,0.239
3,ATCCGGGC,0.127
4,TAAGTCGA,0.13
5,GTTCGATA,0.159
6,AGAGAGTG,-0.0214
7,ACCTTGGA,-0.0763
8,AAAGGTCC,-0.112
9,ACGTGAGA,-0.208
10,GCTTTTTA,0.161
11,ACTTATGA,0.147
12,CTGGATAA,0.109
13,CTAGTGTC,-0.0625
14,AATTAATT,0.206
15,GTTCTCGA,-0.139
16,AGGACGTG,-0.264
17,AGTTCTAA,0.184
18,AGTGACTC,-0.0958
19,ACCACGCA,-0.327
20,CATACGCC,-0.0291
21,AGTAAGGC,-0.00012
22,CCGGAAGA,0.312

# Source: the supplement of paper PMC3334620
